Test results from the supplement of paper PMC10681739.
In all, about 2,700 sequences were measured (“arbitrary fluorescence units”: median about 4,100, highest 2% from about 54,000 on). The list shows a part of the results.

Molecular target: T1, ETS1 (UniProt P14921)
T1 sequence: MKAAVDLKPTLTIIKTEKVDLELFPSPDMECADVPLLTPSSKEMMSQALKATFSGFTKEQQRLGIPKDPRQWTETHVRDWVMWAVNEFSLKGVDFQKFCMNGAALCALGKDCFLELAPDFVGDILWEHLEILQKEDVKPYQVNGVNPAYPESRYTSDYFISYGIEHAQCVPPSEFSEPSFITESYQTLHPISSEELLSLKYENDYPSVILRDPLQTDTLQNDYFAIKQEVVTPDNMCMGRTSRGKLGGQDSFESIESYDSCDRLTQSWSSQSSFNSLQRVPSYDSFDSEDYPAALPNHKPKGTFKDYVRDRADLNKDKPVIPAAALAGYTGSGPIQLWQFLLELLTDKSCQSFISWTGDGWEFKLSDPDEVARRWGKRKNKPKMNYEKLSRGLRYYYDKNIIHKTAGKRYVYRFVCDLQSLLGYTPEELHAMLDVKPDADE
Experiment: ETS1 binding intensity (PBM fluorescence) (arbitrary fluorescence units); higher = stronger binding
Details: ETS1 concentration 10 nM
Method: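 gcPBM on wild-type 36-bp genomic probes with two neighbouring ETS1 sites (4-24 bp apart). Recombinant human ETS1 (10 nM) was detected with anti-ETS1 antibody fluorescence. Values are medians over 3 replicate spots. The probes sit in constant array flanks that are not printed.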

Q: Which ETS1 binding intensity does the source give for CGGCTCATTTCCGCCCGACCCAGCGGAAAGCTAGGG here?
A: 22400

Q: With GAAAGCGGAGAACGGAAGTCGGATGTTGGACCGCTG as the sequence, how does the ETS1 binding intensity read?
A: 9280

Q: TATCTCCTTCCTGTGTAGCATTGACTTTCCTGTCAG was tested. Which ETS1 binding intensity did it give?
A: 14100

Q: For ATTCTGGCAGGAAGTAACTTGGCAGGAAGTAACTTG, which ETS1 binding intensity is on record?
A: 10600

Q: With CGAACCGGAACCGCCTTCACAGCACCGGAAGAGTCG as the sequence, how does the ETS1 binding intensity read?
A: 3640

Q: Which ETS1 binding intensity does the source give for TCGGCCGGAAGTGTCTCCGGCCTTTTCGGAAGTCAC here?
A: 18000

Q: ACTACAGGAAGAGAGAGAAGCATCTGCTTCCTCGAG was tested. Which ETS1 binding intensity did it give?
A: 888

Q: AACAGCCAGTTCCGGCGGCCGCACTTCCGATTGGCA was tested. Which ETS1 binding intensity did it give?
A: 11800

Q: AGTACTTCCCCCTTCACTCTCTCTCTCTTTCCTGCT was tested. Which ETS1 binding intensity did it give?
A: 4220

Q: How did the ETS1 binding intensity turn out when TCACACAGGAAGACGGTCATGCTACAGGAAGACCTC was run?
A: 1630

Q: For CCCTCGGTTCGGAAACGGCGAAAGGAAACCGCAAGG, which ETS1 binding intensity is on record?
A: 203

Q: For AGCACCCAGGAAGTGGTGAATACACTTCCTGCTTCT, which ETS1 binding intensity is on record?
A: 9490

Q: CCCCTGTCACACATCCTGTGGGAAGTCGGAGGCCTC was tested. Which ETS1 binding intensity did it give?
A: 10200

Q: GATGGCTTCCTGCGCGACAGCAAGCACATCCTGGGG was tested. Which ETS1 binding intensity did it give?
A: 11200

Q: AAAGGAGGATGTGAACAAAGGTCGAGGGAAATGACA was tested. Which ETS1 binding intensity did it give?
A: 406

Q: With TGGGGTGCGGTTTCCTCAGGGGGAAGTTGAGGTCAC as the sequence, how does the ETS1 binding intensity read?
A: 669

Q: For AGAAGCTTACAGGAAGCAAACAGGAAAACGTGTGTC, which ETS1 binding intensity is on record?
A: 2720

Q: For CAGATGTTTCCTGCTCACCTCCCGCATCCTGGTGAC, which ETS1 binding intensity is on record?
A: 11700

Q: How did the ETS1 binding intensity turn out when TTAGCCGGATGTGCTTGCTTGAACCCGGAAGACGGA was run?
A: 11700

Q: GAAGGGCTGTTTCCCGGCTGGCAGGATGTTTGTGCA was tested. Which ETS1 binding intensity did it give?
A: 1590

Q: For GCCACAGTACTTCCTGTTAGAACATCCTGTCTCCTG, which ETS1 binding intensity is on record?
A: 44800

Q: Which ETS1 binding intensity does the source give for GACTCGGTTCCGCGGAAATCGGAAATCGAAACTTAC here?
A: 721

Q: AGGGCTCCATCCGCAACGTAAGCAGGAAAAGATTCC was tested. Which ETS1 binding intensity did it give?
A: 1240

Q: For AGAGCCTGGGATGTGAAGATAAGCTTCCGTTTCTCA, which ETS1 binding intensity is on record?
A: 411

Q: With CTAACCCAACTACTTCCTTCTTCCTGTGCGGCTCAA as the sequence, how does the ETS1 binding intensity read?
A: 6140

Q: For TGAATTATCTGCCGGAAGAGGGAAATGTCAACAGAA, which ETS1 binding intensity is on record?
A: 2000

Q: How did the ETS1 binding intensity turn out when AGCAGGAAGCTGGCAGCCATGAATTCTGGGAAATGT was run?
A: 381

Q: Which ETS1 binding intensity does the source give for TTAGAACGGAAATCACTAAAAAGTCAGGAAACAACA here?
A: 7350

Q: CGACGGGAAACGTCTCTGAATTAGGTGTTCCGCTCG was tested. Which ETS1 binding intensity did it give?
A: 294

Q: Which ETS1 binding intensity does the source give for AGAGGAGGAAGCTGGGGTTGGAGACAGGAAGTGACT here?
A: 3670

Q: For ACACAGGAAATAAAGATTAAACAAAGAGGAAGTGAA, which ETS1 binding intensity is on record?
A: 5770

Q: Which ETS1 binding intensity does the source give for GCTGGACAGGATATACGGAGTAAAAGGAAGTGCTGT here?
A: 5810

Q: How did the ETS1 binding intensity turn out when TTTGCAGGAAGCAGATTATGAGGTAGCTTCCTATGG was run?
A: 962

Q: Which ETS1 binding intensity does the source give for GGCCGGGATGTGGCCGAGCTCTTCTACCGGAAGCTG here?
A: 1610

Q: With ATTTTATTACTTCCTCTCTTGACTTCCCAAAGAATT as the sequence, how does the ETS1 binding intensity read?
A: 8140

Q: Which ETS1 binding intensity does the source give for GGGTAAGGAAGTTGAGTTGGCCAACAGGAAGCAGGT here?
A: 1630

Q: AGTTTCGCTACATTTCCCAGGATGCTTTGCCAATAG was tested. Which ETS1 binding intensity did it give?
A: 192

Q: For CTGGTTTAAAGGAAGTTGCTCTGTTCCGTTTTATTT, which ETS1 binding intensity is on record?
A: 1260

Q: For TCATGTTTCATCCTGTTGTTTTGCTTCCTTTAAAAG, which ETS1 binding intensity is on record?
A: 2640

Q: How did the ETS1 binding intensity turn out when CACAGCGCTTCCGGGCGCCCAGGTTTCCGAGCCAGC was run?
A: 23000

Q: CGGGGGCCGTTTCCTGGGCTCCTTCCTGCAGGGCCT was tested. Which ETS1 binding intensity did it give?
A: 7210

Q: With CCTGACACTCAGGAAGGCTGCAGGAAGTGCCTGAGG as the sequence, how does the ETS1 binding intensity read?
A: 912

Q: GAGCCCGGCGGATGCTGACGTCATTTCCGCCACGAG was tested. Which ETS1 binding intensity did it give?
A: 5390

Q: For CGTTCCCGTTTCCGCCAGCCACCGGAACTGCGGCCC, which ETS1 binding intensity is on record?
A: 17500

Q: With CAGCAGGAAGCGGTGTACAGGCTTTGCCGGAAGAGA as the sequence, how does the ETS1 binding intensity read?
A: 2380

Q: Which ETS1 binding intensity does the source give for AGCTTTCCTGTCGTCATTGTACCGCCATTTCCTGAG here?
A: 7750

Q: How did the ETS1 binding intensity turn out when GGCGCGCGTGGCAGGAAGCGGAAGCGATCCGAGGCC was run?
A: 5510

Q: Which ETS1 binding intensity does the source give for CTTGCGCTCCACTTCCTTCACATCCTCCTCCGCCTC here?
A: 3970

Q: Which ETS1 binding intensity does the source give for AACGCCACTGGCTTCCCGGCCTTCCGTCCGCTGCCT here?
A: 421

Q: CCGAAGATCGCACTTCCGCTTCCGGGGCATAGCACC was tested. Which ETS1 binding intensity did it give?
A: 24800

Q: For GTCACACAGGAAGTGGCAATGGCAGGATGTACCCTT, which ETS1 binding intensity is on record?
A: 14800

Q: For GGAACAGCAGGATGTGAGTAACAGGAAGTGACAGAA, which ETS1 binding intensity is on record?
A: 8830

Q: For GCGTGGCATCTTCCGCACCCACTTCCTGCTCTTTCT, which ETS1 binding intensity is on record?
A: 9080

Q: With GCTCCGTGGAGGAGGAAACATCCTGCTTGTTTTTCA as the sequence, how does the ETS1 binding intensity read?
A: 3420

Q: For ACCATCTCATTTCCCCTTACAACTTCCTGAGGTGCA, which ETS1 binding intensity is on record?
A: 4670

Q: With GCCCGAGCCGCTTCCGGGTACTTCCGGCGGCCGCGG as the sequence, how does the ETS1 binding intensity read?
A: 39600

Q: GGGCGGAAAGCAGGAAGTCGATCCCGCGGGCGCGGC was tested. Which ETS1 binding intensity did it give?
A: 11200

Q: For TAGACGGACAGGAAACAGCAGAGGAAATGGCTGCTG, which ETS1 binding intensity is on record?
A: 4870

Q: With ACATAAAGGAAGTGGCATCTGAGAGCTTCCGGCACG as the sequence, how does the ETS1 binding intensity read?
A: 7130

Q: With ACACACAGGAAGCTAATAACTAGACAGGAATGCTGA as the sequence, how does the ETS1 binding intensity read?
A: 4960

Q: For GGCAACGAGGAAGCGGGGCCCGCCGGAAAAGGCGGG, which ETS1 binding intensity is on record?
A: 474

Q: For AGAGAGGAAGCTGAGAAAGCAGCTCCAGGAAGTGGC, which ETS1 binding intensity is on record?
A: 648

Q: With GTAACAGGAAGAAAATAATTTACCACATCCTTTATT as the sequence, how does the ETS1 binding intensity read?
A: 975
